Test results published in article PMC4336329 (PLoS ONE, 2015).
In all, about 310,000 compounds went through this assay and about 2,200 (0.71%) showed an effect of 50% or more. Effects have a minus sign here. This is one part of the list.

The molecules below were run against human ether-à-go-go-related gene (hERG) potassium channel (human, UniProt Q12809) (assay: primary screen, population patch clamp on CHO cells stably expressing hERG).
Sequence of human ether-à-go-go-related gene (hERG) potassium channel (Q12809 whole entry, looked up): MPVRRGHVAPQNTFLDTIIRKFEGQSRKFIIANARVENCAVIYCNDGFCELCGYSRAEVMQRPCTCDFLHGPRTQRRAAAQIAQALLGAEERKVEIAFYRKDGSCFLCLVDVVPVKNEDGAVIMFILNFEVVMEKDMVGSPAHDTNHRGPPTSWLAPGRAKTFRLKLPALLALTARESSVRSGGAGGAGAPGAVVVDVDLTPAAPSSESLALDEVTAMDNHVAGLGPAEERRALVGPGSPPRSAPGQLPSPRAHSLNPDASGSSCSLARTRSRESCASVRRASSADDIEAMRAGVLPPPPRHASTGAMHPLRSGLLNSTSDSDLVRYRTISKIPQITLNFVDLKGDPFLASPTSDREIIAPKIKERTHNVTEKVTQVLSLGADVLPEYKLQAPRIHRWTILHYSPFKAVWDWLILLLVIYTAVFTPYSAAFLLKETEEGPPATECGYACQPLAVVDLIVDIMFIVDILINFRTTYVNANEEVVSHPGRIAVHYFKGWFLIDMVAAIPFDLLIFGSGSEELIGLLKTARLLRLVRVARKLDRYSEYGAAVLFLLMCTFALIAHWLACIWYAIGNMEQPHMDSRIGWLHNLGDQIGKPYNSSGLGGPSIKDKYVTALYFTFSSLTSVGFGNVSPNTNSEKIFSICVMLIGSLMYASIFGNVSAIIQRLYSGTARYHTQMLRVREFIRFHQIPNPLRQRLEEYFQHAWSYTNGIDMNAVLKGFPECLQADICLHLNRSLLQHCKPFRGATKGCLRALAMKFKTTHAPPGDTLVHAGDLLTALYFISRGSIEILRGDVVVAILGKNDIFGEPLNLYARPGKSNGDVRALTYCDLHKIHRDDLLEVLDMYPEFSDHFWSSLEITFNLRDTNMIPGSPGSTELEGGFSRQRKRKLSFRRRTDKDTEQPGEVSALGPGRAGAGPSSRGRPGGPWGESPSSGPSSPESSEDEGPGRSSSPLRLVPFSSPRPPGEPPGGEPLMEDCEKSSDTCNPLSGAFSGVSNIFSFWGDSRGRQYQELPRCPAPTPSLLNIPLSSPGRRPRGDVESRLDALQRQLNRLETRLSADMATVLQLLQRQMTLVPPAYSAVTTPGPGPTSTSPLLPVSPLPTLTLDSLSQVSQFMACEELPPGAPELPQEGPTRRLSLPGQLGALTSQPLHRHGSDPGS

Compound	hERG current change (%, negative = inhibition) at 1uM
CCn1c(C)c(C(=O)O)c2cc(OC)c3ccccc3c21	10.7%
O=C(O)CCCC(=O)N1CCN(c2ncccn2)CC1	20%
Cc1cc([N+](=O)[O-])nn1CC(=O)N1CCOCC1	-3.55%
COc1ccc(C(=O)CCC(=O)NC2=NCCS2)cc1	11.7%
CC(C)(C)c1nnc(N/N=C/c2ccc(O)cc2)n(N)c1=O	6.09%
COc1ccc(C(=O)CN2C(=O)c3ccccc3S2(=O)=O)cc1	11.5%
O=C1CSC(=S)N1Cc1cccnc1	-0.687%
Cc1cc(NC(=O)c2ccc(Br)c([N+](=O)[O-])c2)no1	14%
COc1ccc(F)cc1CN1CCN(C(=O)CCC(=O)Nc2nnc(C(C)C)s2)CC1	5.87%
CCCOC(=O)C1=C(C)NC2=C(C(=O)CCC2)C1c1cc(OC)ccc1OC (stereo not drawn)	10.6%
O=C(CCNC(=O)c1ccc(Br)cc1)Nc1cccc(S(=O)(=O)N2CCCCCC2)c1	11.9%
CN(CC(=O)Nc1ccc(N2CCOCC2)cc1)C(=O)c1cn(-c2ccccc2)nc1-c1ccccc1	11.4%
COc1ccc(CNC(=S)NCc2ccc(F)cc2)cc1	3.37%
CC1CCCCC12NC(=O)N(CC(=O)Nc1cccnc1Cl)C2=O (stereo not drawn)	6.41%
Cc1cc(C)n(-c2nc3ccccc3nc2N2CCN(C(=O)c3ccc(F)cc3)CC2)n1	-0.0294%
COC(=O)c1nn(-c2nc(-c3cccc(OC)c3)cc(C(F)(F)F)n2)cc1[N+](=O)[O-]	8.5%
COc1cc(CNCc2cc(OC)c(OC)c(OC)c2)cc(OC)c1.O=C(O)C(=O)O	12.6%
O=C(Oc1ccc2ccc(O)cc2c1)C1CCCCC1	10.7%
CC(=O)Nc1ccc(NC(=O)C(C)N(C)CC(=O)Nc2ccccc2Br)cc1 (stereo not drawn)	7.25%
O=C(Cn1c(=O)oc2cc(S(=O)(=O)N3CCCC3)ccc21)N1CCN(C2CCCCC2)CC1	3.22%
S=c1[nH]nc(-c2ccc(Br)cc2)n1-c1ccc(Br)cc1	9.52%
Cc1cc(C)cc(N(CC(=O)NC2CCCCC2)C(=O)CCCC(=O)Nc2ccccn2)c1	12%
Cc1cc(C)n2c(SCc3ccccc3Cl)nnc2n1	13.5%

Compound	hERG current change (%, negative = inhibition) at 1uM
CSc1nc(C)cc(-n2ccc(=O)[nH]c2=O)n1	11.8%
CC1CC2(O)c3no[n+]([O-])c3CCC2N1O (stereo not drawn)	9.14%
CSc1ncc(CN2CCc3c([nH]c4ccccc34)C2C(C)(C)C)cn1 (stereo not drawn)	13.5%
O=C(C1COc2ccccc2O1)N1CCOCC1 (stereo not drawn)	13.6%
NNC(=S)Nc1c(F)cc(F)cc1Br	13.1%
COc1ccc(NCC(=O)N/N=C/c2ccc3c(c2)OCCO3)cc1	9.38%
Cn1c(SCC(=O)Nc2ccc(C(N)=O)cc2)nnc1-c1cccs1	22.8%
COc1ccc(N2CCN(C3CCCN(Cc4ccc(F)cc4Cl)C3)CC2)cc1 (stereo not drawn)	-3.12%
Cc1c(Cl)c(=O)n2c(=O)c(Cl)c(C)n12	10.7%
CC(C)c1cccc(C(C)C)c1NC(=O)CNCC(O)c1ccccc1.O=C(O)C(=O)O (stereo not drawn)	10.1%
Cc1cn(CCC(=O)Nc2ccccc2N2CCOCC2)c2ccccc12	13.7%
COc1ccc(C(=O)Nc2cc(C)nn2-c2cccc(F)c2)cc1OC	11.5%
Cc1ccc(S(=O)(=O)NCC(=O)N2CCOCCOCCOCCOCC2)cc1	21.6%
O=C(CCC(=O)N1CCOc2ccccc21)NCCc1ccccc1	9.06%
CCC(=O)Nc1ccc(N2CCCCC2)c(C(=O)Nc2ccc(OC)cc2)c1	16.6%
COc1ccc2nc(NC(=O)CSc3nc(C)cc(=O)[nH]3)sc2c1	17.2%
CC1Oc2ccccc2N(CC(=O)Nc2ccc3c(c2)OCCO3)C1=O (stereo not drawn)	0.733%
CS(=O)(=O)N1CCN(C2CCN(Cc3ccccc3)CC2)CC1	7.88%
c1ccc(Oc2cnc3ccccc3n2)cc1	-2.46%
CCN(CC)c1nc(C(F)(F)F)nc2c1nnn2Cc1ccccc1	16.9%
Cc1c(NCc2nc3ccccc3[nH]2)c(=O)n(-c2ccccc2)n1C.Cl	5.74%
CN(CC(=O)Nc1ccc(F)cc1)C(=O)CCc1nc2ccccc2c(=O)[nH]1	14.4%
O=c1ccc(S(=O)(=O)N2CCCC2)cn1Cc1ccc(F)cc1	9.78%

Compound	hERG current change (%, negative = inhibition) at 1uM
O=C(Nc1ccccc1[N+](=O)[O-])c1cc(S(=O)(=O)N2CCOCC2)cs1	11.1%
COc1ccc(N(CC(=O)O)S(=O)(=O)c2ccccc2[N+](=O)[O-])c(OC)c1	11%
COc1ccc(C(=O)c2coc(-c3ccccc3C(=O)O)c2C(=O)O)cc1	4.92%
CN1CCC(N(C)S(=O)(=O)c2ccc(NC(=O)COc3ccc(F)cc3Cl)cc2)CC1	5.82%
O=C(NCc1ccc(F)cc1)c1ccc(CS(=O)(=O)Cc2ccc(F)cc2)o1	12%
CCc1ccc(-c2cc(C)no2)cc1S(=O)(=O)N1CCN(c2ccc(F)cc2)CC1	6.58%
O=C1NC(c2ccc(Cl)cc2)Nc2ccccc21 (stereo not drawn)	7.47%
O=C(CSc1ccc(C(F)(F)F)cn1)Nc1ccccc1	3.4%
COc1cccc(/C=N/NC(=O)c2cnccn2)c1O	3.25%
Cc1cccc(OCC(=O)N2CCN(Cc3ccc4c(c3)OCO4)CC2)c1.O=C(O)C(=O)O	3.62%
O=C(N/N=C/c1ccccc1[N+](=O)[O-])c1cnccn1	10.5%
O=C(CN1CCCCCC1)NCc1ccccc1	11.8%
O=C(COc1ccc(F)cc1Cl)Nc1cccc(S(=O)(=O)N2CCCCCC2)c1	8.73%
CCOC(=O)c1cc(-c2ccc([N+](=O)[O-])cc2)nc2c1c(=O)[nH]c(=O)n2Cc1ccccc1	15.8%
COc1cc(-c2nnc(COc3ccc4cc(Br)ccc4c3)o2)cc(OC)c1OC	16.9%
COc1ccc(CNC(=O)C2CCN(C(=O)Cc3ccccc3)CC2)cc1	0.341%
Cc1ccc(/C=C2\SC(=S)N(c3cccnc3)C2=O)cc1	9.76%
O=C1NC(=O)/C(=C\c2ccc(OCc3cnc(Cl)s3)cc2)S1	10.9%
CCCN(CC1CC1)C(=O)CSc1ncnc2sc(C)c(C)c12	-7.45%
CCCn1c(N)c(N(CCOC)C(=O)c2ccccc2F)c(=O)[nH]c1=O	9.25%
Cc1ccc(CNC(=O)C2CCCN(S(=O)(=O)c3c(C)noc3/C=C/N(C)C)C2)cc1 (stereo not drawn)	8.02%
Cc1ccc(SC(C)C(=O)Nc2ccccc2-c2ccccc2)cc1 (stereo not drawn)	7.89%
O=[N+]([O-])c1ccc(CSc2nnc(SCc3ccccc3)s2)cc1	12.5%

Compound	hERG current change (%, negative = inhibition) at 1uM
O=C(Nc1ccc(-c2nnc(-c3ccccc3)o2)cc1)C1CCCO1 (stereo not drawn)	4.38%
C/C(N)=C(/C#N)C(=O)COC(=O)CC12CC3CC(CC(C3)C1)C2	14.2%
CC(C)=CCc1c(O)cc2c(c1O)C(=O)CC(c1ccccc1)O2 (stereo not drawn)	12.9%
COc1ccc(CNC(=O)c2cc(SC)ccc2Cl)cc1OC	5.58%
CS(=O)(=O)NCCCNc1c(Cl)cccc1[N+](=O)[O-]	-2.75%
COc1ccc(Cl)cc1Nc1nc(C)nc2c1nnn2Cc1ccccc1	12.9%
Nc1ccc(C(=O)N/N=C/c2ccccc2)cc1	2.85%
CC(C)c1cc(C(C)C)c(S(=O)(=O)N2CCNCC2)c(C(C)C)c1	13.4%
COCCCn1c(=O)c2sccc2n2c(CCCC(=O)NCc3ccc(OC)cc3)nnc12	10.2%
CCOC(=O)N1CCN(C(=O)C2CCC(=O)N(Cc3ccc(Cl)cc3)C2)CC1 (stereo not drawn)	1.25%
Cc1[nH]c2ccccc2c1C(=O)CSC(=S)N1CCOCC1	6.63%
O=C(COC(=O)COc1ccccc1)NCc1ccco1	5.39%
COc1cc(OC)c2cc(C(=O)N/N=C/c3ccccc3O)[nH]c2c1	11.6%
CCCOc1ccc(NC(=O)C2CC(=O)N3CCCN=C3S2)cc1 (stereo not drawn)	-1.16%
COc1ccc(/C=C\C(=O)NCC(=O)N/N=C/c2ccc(O)cc2O)cc1	1.65%
COc1ccc(C)cc1S(=O)(=O)Nc1cc2c3c(c1)CC(=O)N3CCC2	9.54%
Cc1ccc2c(c1)C(=O)c1ccccc1CS2=O (stereo not drawn)	-3.3%
N=c1c2c3c(sc2nc2n1CCCCC2)CCCC3	-18.7%
O=C(NNC(=O)c1ccncc1)Nc1cccc([N+](=O)[O-])c1	7.08%
C=CCN(C(=O)c1csnn1)C(C(=O)NCc1ccc(F)cc1)c1ccccc1 (stereo not drawn)	9.41%
CC(C)(C)C1CCC2(CC1)NC(=S)N(c1ccccc1)N2 (stereo not drawn)	-0.829%
